# In the supplement of paper PMC3334620:
# Whole data set: some 33,000 sequences, median “E-score (-0.5 to 0.5)” near -0.011, cut for the highest 2% near 0.28. Some of the results follow.
# Target: T1, Gcr1 (UniProt P07261)
# T1 sequence: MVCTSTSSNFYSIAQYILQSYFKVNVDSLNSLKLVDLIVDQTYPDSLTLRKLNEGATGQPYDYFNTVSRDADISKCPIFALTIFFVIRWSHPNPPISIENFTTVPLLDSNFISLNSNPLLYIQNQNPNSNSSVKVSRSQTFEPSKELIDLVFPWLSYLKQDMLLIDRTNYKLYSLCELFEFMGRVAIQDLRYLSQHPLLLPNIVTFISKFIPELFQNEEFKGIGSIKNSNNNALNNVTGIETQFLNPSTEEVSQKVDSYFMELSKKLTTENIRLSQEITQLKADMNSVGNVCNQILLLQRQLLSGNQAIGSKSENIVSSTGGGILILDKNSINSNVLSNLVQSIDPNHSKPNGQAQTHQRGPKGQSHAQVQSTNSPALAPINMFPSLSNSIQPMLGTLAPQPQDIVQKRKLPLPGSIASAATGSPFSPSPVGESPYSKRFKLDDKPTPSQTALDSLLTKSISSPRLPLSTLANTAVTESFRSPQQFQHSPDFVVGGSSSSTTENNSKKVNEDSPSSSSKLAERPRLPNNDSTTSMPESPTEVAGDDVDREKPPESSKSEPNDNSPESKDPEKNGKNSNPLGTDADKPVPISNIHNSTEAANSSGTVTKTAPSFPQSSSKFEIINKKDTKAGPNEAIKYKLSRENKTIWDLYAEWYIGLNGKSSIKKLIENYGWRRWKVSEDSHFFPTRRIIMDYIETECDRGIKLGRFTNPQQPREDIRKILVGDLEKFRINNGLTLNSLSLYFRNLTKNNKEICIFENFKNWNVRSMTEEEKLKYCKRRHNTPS
# Assay: PBM E-score (8-mer binding enrichment) (E-score (-0.5 to 0.5)); higher = stronger / more preferred TF binding; most listed sequences are background and not binding sites
# Details: protein concentration: 100 nM; construct: GST-full length
# Method in brief: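 Each ungapped eight-base word and its reverse complement, pooled, received an E-score from the Universal PBM Analysis Suite. Underlying scans, normalised with masliner, recorded fluorescent anti-GST bound to GST-tagged yeast transcription factors. These were applied at about 100-200 nM to universal all-10-mer Agilent arrays double-stranded by primer extension.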
row,Sequence,PBM E-score
1,CGTCTCGC,-0.13
2,AGCAACTC,-0.123
3,CAAGCAGG,-0.0143
4,CACAGACC,-0.00159
5,CTCCGTTC,-0.123
6,AATCTAGC,0.0844
7,TAGCATCA,0.0464
8,TCCCAAAA,0.244
9,GCATCAGC,-0.00234
10,CTAAAAGC,-0.00957
11,TGCCACAA,0.173
12,CAACATTC,0.0583
13,CGTTACGC,0.00104
14,CCCCCTTC,-0.312
15,ATTCCGCA,0.155
16,CTTTGAGA,0.0369
17,AACCCATG,-0.0195
18,AAATGTTC,0.00698
19,AGTATCAG,-0.0443
20,ATGGCAAG,-0.118
21,ACGGGACC,-0.117
22,CTCGAGGA,-0.0231
23,ACATGGTG,0.0329
24,AAGAGCAT,0.114
25,TAACGGAA,0.135

row,Sequence,PBM E-score
1,ACCCGGGT,-0.236
2,CACTTGGG,-0.109
3,AGCGCTTC,0.12
4,CCCGAACG,-0.00173
5,CAAAATGG,0.238
6,ATTCATTG,-1e-05
7,GCTTGCGA,-0.133
8,ACCACGAC,-0.0858
9,AGATGGCT,-0.032
10,AAGCTCAC,-0.0779
11,CCCCTCGG,-0.126
12,CTACATAG,-0.0452
13,CTGATCCC,0.0396
14,GACCCGCC,-0.217
15,ACAACGGA,0.0864
16,ATCACATG,-0.0474
17,GCCAATAC,-0.146
18,ATAAGTGA,-0.119
19,AATCAGGA,0.0641
20,AGCTGCCC,0.217
21,AGCGTAGA,-0.0252
22,CGTCGCGC,-0.134
23,GGACGATA,0.0385
24,AGCCGCGA,0.103
25,ATACGAGG,0.0354

row,Sequence,PBM E-score
1,GTACACCA,-0.179
2,CAGACTCA,-0.268
3,ACTCGCCG,-0.00848
4,CATCCCGC,-0.0239
5,GGACAGAA,0.0154
6,ATGAGCGC,-0.108
7,CGCTCTTC,-0.00286
8,AAAGATTA,0.0511
9,AAACTAGT,0.0835
10,GATTCCGA,0.205
11,GACGGGCA,-0.103
12,CGCAGTAC,-0.321
13,AGCTCATC,-0.118
14,AACTCGAA,0.143
15,CATGGCTA,-0.148
16,GCTTATTA,0.0315
17,ACGTTATG,-0.158
18,CCTAACAG,0.0692
19,TCGCCTAA,0.0844
20,AGGAAAGG,0.00229
21,ACACGAAG,0.238
22,TTAAGGAA,0.219
23,ACCGTGAG,-0.119
24,CTAGATCA,0.0347
25,GATGCAAC,-0.0871

row,Sequence,PBM E-score
1,CTTGCTGC,0.0636
2,CGTTCAAC,0.00342
3,AGTTAGCC,-0.136
4,CAAACCCG,-0.213
5,GATCTATA,0.0648
6,ACCTGTCC,-0.128
7,CTGGCCAC,-0.152
8,ATGTAAGG,0.127
9,CGCTTCTC,0.116
10,GACTAATA,-0.017
11,CCAGAGCC,0.0627
12,CAGCGTCG,0.127
13,ACGGCCGA,-0.161
14,GGAACTGA,-0.0451
15,ACGGATAG,0.0102
16,AGAATGCC,0.00241
17,GATTTGTA,-0.0426
18,CGCTTTAG,0.0843
19,GTTGTTGA,0.112
20,AGTGAACA,-0.106
21,TGGTCGAA,-0.269
22,TAGAAATA,-0.0925
23,GTTTCCGA,0.109
24,CCACTATA,0.276
25,GCCGGAGC,0.227

row,Sequence,PBM E-score
1,CCCATTCG,0.135
2,GCAGGACC,0.0308
3,AAGCCCTG,-0.198
4,AATTTTGC,0.0363
5,AATATGCG,0.0425
6,GAAATGAC,-0.122
7,CCCCATAA,0.201
8,CCTATTAG,0.0477
9,CCATATGC,-0.00395
10,AGGGATTC,0.276
11,CAGCATCG,0.0157
12,CGCTGGCA,0.0601
13,CCGATCCC,-0.184
14,CACAGATC,0.0515
15,AATGGGTC,0.00058
16,CGTCGTAA,0.0685
17,TCTTGCCA,-0.216
18,TCAGGGAA,-0.0045
19,AAATGCAG,-0.175
20,GCGCCATA,0.254
21,AGTTTGCA,-0.0214
22,AGAGACTA,-0.0782
23,CACAGCTC,-0.255
24,ACCTAGTG,0.129
25,CAACTTCC,0.321

row,Sequence,PBM E-score
1,AAATTCTG,0.111
2,AAGATTGG,0.153
3,GGCACGAC,-0.182
4,ATCTACTG,0.105
5,GCACGTTA,-0.0593
6,ACCGACGT,-0.164
7,GTCAGTTA,-0.0622
8,AGCACAAT,-0.0977
9,ACACCATC,-0.174
10,GTAATAAA,0.106
11,CCGGCAAA,-0.0617
12,AAAGACAA,0.0383
13,ACCTGTTC,0.126
14,CACAGTGA,-0.105
15,AACGGTTC,-0.172
16,CATGTGGG,-0.0685
17,CATGTTTA,0.00797
18,ACCATAAT,0.18
19,CATTCACA,-0.0409
20,ACTTGCTC,0.001
21,CTCTTCTC,-0.156
22,CCCAGGCG,0.114
23,AATGGCAC,0.0245
24,GCAGGTAA,0.0517
25,GTCCCCAA,0.121

row,Sequence,PBM E-score
1,ATACCCAA,0.2
2,AGAAGCTA,0.338
3,CAAGGCGG,0.0282
4,ACGTTGAC,-0.267
5,ATCTGCTA,-0.212
6,GTGGTAGA,-0.166
7,AATGCGCG,-0.108
8,ACACGCCT,-0.087
9,CTCGCGCA,-0.262
10,AATGACCG,-0.253
11,GCTGATAC,0.0262
12,CCCCAGGA,-0.0974
13,CCGTCGAC,-0.201
14,GAGGTCAC,-0.0616
15,CGACCCCC,-0.203
16,CCACAGAC,-0.0659
17,GGACTCAC,-0.173
18,ACCGGTGG,-0.0926
19,TAATCACA,0.0794
20,AATCGTCG,-0.258
21,ACCTTAAG,0.0276
22,CCCCGAAA,0.119
